The supplement of paper PMC7266297
Some of the results follow. Many values rest on one well or one pass, so single values are uncertain.

Columns and labels:
[1] = test system: KB-3-1; test: growth inhibition relative to DMSO control (SRB); cervical cancer cells: KB-3-1 is the parent and KB-V1 overexpresses MDR1; SRB is the sulforhodamine B stain; higher = more growth inhibition; conditions: 1 µM; 72 h
[2] = test system: KB-V1; test: as above; conditions: 1 µM; 72 h
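Note: Read-out is SRB optical density at 490 nm, with the control being wells given 0.5% DMSO vehicle, and compound added one day after cells were plated.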

SMILES | growth inhibition [1] [%] | growth inhibition [2] [%]
Nc1nc(N)nc(-c2cc(Cl)ccc2Cl)n1 [Irsogladine] | 47.8 | 23.5
CN1CCN(C2=Nc3cc(Cl)ccc3Nc3ccccc32)CC1 [Clozapine] | 26 | 6.49
COc1ccc(CC(C)NCC(O)c2ccc(O)c(NC=O)c2)cc1 (stereo not drawn) [Formoterol Hemifumarate] | 55.9 | 10.3
O=C(O)Cc1cccc(OCCCN(Cc2cccc(C(F)(F)F)c2Cl)CC(c2ccccc2)c2ccccc2)c1 | 26 | < 0
C[C@H](Cn1cnc2c(N)ncnc21)OCP(=O)(O)O [Tenofovir] | 16.7 | 31.7
CC(C)Cc1ccc(C(C)C(=O)O)cc1 (stereo not drawn) [Ibuprofen] | 25.3 | 12.8
CN[C@@H](C)C(=O)N[C@H](C(=O)N1CCC[C@H]1C(=O)Nc1snnc1-c1ccccc1)C1CCCCC1 | 25.1 | 9.32
COC(=O)c1ccc2c(c1)NC(=O)/C2=C(\Nc1ccc(N(C)C(=O)CN2CCN(C)CC2)cc1)c1ccccc1 [Nintedanib (BIBF 1120)] | 36 | 27.1
O=C(O)C(Cc1ccccc1[N+](=O)[O-])=NNc1nc(-c2ccc(Cl)c(Cl)c2)cs1 (mixture of isomers) | < 0 | < 0
CS(=O)(=O)Nc1ccc([N+](=O)[O-])cc1Oc1ccccc1 [Nimesulide] | 21.1 | 21.1
Cn1c(=O)c2c(ncn2CC(O)CO)n(C)c1=O (stereo not drawn) [Dyphylline] | 32.4 | 17.8
CCCc1cc(C)[nH]c(=O)c1CNC(=O)c1cc(-c2ccc(N3CCN(C(C)C)CC3)nc2)cc2c1cnn2C(C)C | 5.75 | 19.7
COc1ccc(CNc2nc(N3CCC[C@H]3CO)ncc2C(=O)NCc2ncccn2)cc1Cl [Avanafil] | < 0 | < 0
O=C(Nc1ccccc1)c1cc([N+](=O)[O-])ccc1Cl | < 0 | 11.3
